# The inconclusive results got no clear call from the source; some entries with a clear call stand among them for comparison. A potency beside an inconclusive call is a rough fit, not a confirmed value. More than one record can exist for a structure, and the calls need not agree. Active and inactive are the calls of the source. Calls follow the shape of the dose curve; as a rule, active = well fitted cell-killing curve with a large enough effect in the repeat runs; inconclusive = weak or mixed curves, or effect the other way; inactive = no such curve, though single readings can be large or run the other way.
# Experiment: qHTS assay for identifying genotoxic compounds that show differential cytotoxicity against isogenic chicken DT40 cell lines with known DNA damage response pathways - wild type cell line (AID 743012); also: nearly all actives have a fitted effect of over 60% in size; as to activity change, negative = cytotoxicity: % is scaled to controls: 0 for no effect and ±100 for the full control effect
# Settings: DT40 wild type chicken cells viability, CellTiter-Glo, 40 h; activity change, negative = cytotoxicity: at 68.4 µM (top of the series) unless noted
# Summary of the method: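 Endpoint: CellTiter-Glo luminescence, 30 min RT. Cells: wild type DT40, 300/well. Exposure: compounds in DMSO, 40 h, 37 C/5% CO2, after ~0.5 h pre-incubation.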
# Potency is read from the fitted curve at half-maximal effect; tags tell the direction and shape of the fitted curve.
Compound,Potency,"activity change, negative = cytotoxicity"
Cc1cccc(C)c1NC(=O)c1cc(S(N)(=O)=O)c(Cl)cc1O,inactive,–
c1ccc2cc3c(ccc4ccccc43)cc2c1,"inconclusive: 68.6 µM [cytotoxic, single point]",inconclusive: 31% [at 95 µM]
Clc1cc(Cl)nc(Cl)n1,"inconclusive: 61.9 µM [rising, single point]",–
CC(CO)(CO)C(=O)O,inactive,–
CCOC(=O)c1ccc(OCCN2C[C@H](O)[C@@H](O)[C@H](O)[C@H]2CO)cc1,inactive,–
Cc1ccc2c(c1)C(=O)OC2=O,inactive,–
Oc1ccc(-c2ccc(O)cc2)cc1,"inconclusive: 24.5 µM [cytotoxic, single point]",–
[Na+],inactive,–
C=C(C)CCCC(C)CCO (stereo not drawn),"inconclusive: 48.6 µM [cytotoxic, partial curve, poor fit]",–
CC(=O)Nc1ccc(C)cc1C,"inconclusive: 43.3 µM [rising, single point]",–
CCCc1ncc(C[n+]2ccccc2C)c(N)n1,"inconclusive: 14.3 µM [rising, partial curve, poor fit]",–
CC(NN)c1ccccc1 (stereo not drawn),inactive,–
CCN(CC)CCOC(=O)C(Cc1cccc2ccccc12)CC1CCCO1 (stereo not drawn),"inconclusive: 14.3 µM [cytotoxic, single point]",–
CCCCCCCCCCCCCCCC(=O)OC,inactive,–
O=C(/C=C/c1ccccc1)OCc1ccccc1,active: 54.5 µM,–
CC1COc2ccccc2N1 (stereo not drawn),"inconclusive: 2.73 µM [rising, partial curve, poor fit]",–
C=CCN1CCc2nc(N)sc2CC1,inactive,–
CCCCCCCC(=O)OC,"inconclusive: 4.33 µM [rising, full curve, poor fit]",–
N#CCc1ccc(Cl)cc1Cl,–,inconclusive: -21%
CCC(N)(CO)CO,inactive,–

Compound,Potency,"activity change, negative = cytotoxicity"
NC(=O)CC[C@@H]1NC(=O)[C@H](Cc2ccccc2)NC(=O)[C@H](Cc2ccc(O)cc2)NC(=O)CCSSC[C@@H](C(=O)N2CCC[C@H]2C(=O)N[C@@H](CCCN=C(N)N)C(=O)NCC(N)=O)NC(=O)[C@H](CC(N)=O)NC1=O,inactive,–
C(=C\c1ccccc1)/c1ccccc1,"inconclusive: 76.3 µM [rising, single point]",–
COc1c(Cl)c(Cl)c(Cl)c(Cl)c1Cl,inactive,–
c1ccc(C(O[C@@H]2CCCN(CCc3ccc4c(c3)OCO4)C2)c2ccccc2)cc1,active: 38.6 µM,–
CC1(C)S[C@@H]2[C@H](NC(=O)[C@H](N)c3ccccc3)C(=O)N2[C@H]1C(=O)O,"inconclusive: 68.6 µM [cytotoxic, single point]",–
CC(=O)c1ccc(Cl)c(Cl)c1Cl,inactive,–
O=c1[nH]cnc2nc[nH]c12,"inconclusive: 29.8 µM [rising, partial curve, poor fit]",–
CC(C)(C(=O)c1cccnc1)c1cccnc1,inactive,–
CCC(=O)OCc1ccccc1,"inconclusive: 9.69 µM [rising, partial curve, poor fit]",–
O=C(CCS)OCC(COC(=O)CCS)(COC(=O)CCS)COC(=O)CCS,"inconclusive: 77 µM [rising, single point]",–
O=C(O)CCCCCCCCCCCBr,"inconclusive: 1.09 µM [cytotoxic, full curve]",–
CCN(C(=O)N(CC)c1ccccc1)c1ccccc1,"inconclusive: 24.3 µM [cytotoxic, partial curve]",–
O=C=NCC1CCCC(CN=C=O)C1 (stereo not drawn),inactive,–
O=C(O)CCCCCCC(=O)O,inactive,–
C#CCN(C)Cc1ccccc1,inactive,–
Cc1ccc(Cl)c(Nc2ccccc2C(=O)O)c1Cl,"inconclusive: 21.1 µM [rising, partial curve, poor fit]",–
Cc1ccccc1S(N)(=O)=O,"inconclusive: 27.3 µM [rising, single point]",–
COC(=O)c1ccccc1C(=O)O,–,inconclusive: 4.2%
CC(=O)OC(C)c1ccccc1 (stereo not drawn),"inconclusive: 1.54 µM [rising, full curve]",–

# Experiment: qHTS assay for identifying genotoxic compounds that show differential cytotoxicity against isogenic chicken DT40 cell lines with known DNA damage response pathways - Rev3 mutant cell line (AID 743014); also: nearly all actives have a fitted effect of over 55% in size
# Settings: chicken DT40 Rev3-/- viability, CellTiter-Glo, 40 h; activity, negative = cytotoxicity: at 68.4 µM (top of the series)
row,Compound,Potency
1,c1ccc2cc3c(ccc4ccccc43)cc2c1,"inconclusive: 68.6 µM [cytotoxic, single point]"
2,C=C(C)CCCC(C)CCO (stereo not drawn),"inconclusive: 68.6 µM [cytotoxic, single point]"
3,Cc1ccc(Cl)c(Nc2ccccc2C(=O)O)c1Cl,"inconclusive: 26.6 µM [rising, partial curve, poor fit]"
